Paper PMC8733628
No constants are given. Whether binding was seen depends on the method and setting. Some results given as binding are weak or reduced against the parent protein; the word gives no strength. Sequences can lack the tags named with a protein.

T1: Alb3-Cub: mature Alb3 fused to the C-terminal half of ubiquitin (split-ubiquitin bait) (Arabidopsis thaliana) (UniProt Q8LBP4)
T1 sequence: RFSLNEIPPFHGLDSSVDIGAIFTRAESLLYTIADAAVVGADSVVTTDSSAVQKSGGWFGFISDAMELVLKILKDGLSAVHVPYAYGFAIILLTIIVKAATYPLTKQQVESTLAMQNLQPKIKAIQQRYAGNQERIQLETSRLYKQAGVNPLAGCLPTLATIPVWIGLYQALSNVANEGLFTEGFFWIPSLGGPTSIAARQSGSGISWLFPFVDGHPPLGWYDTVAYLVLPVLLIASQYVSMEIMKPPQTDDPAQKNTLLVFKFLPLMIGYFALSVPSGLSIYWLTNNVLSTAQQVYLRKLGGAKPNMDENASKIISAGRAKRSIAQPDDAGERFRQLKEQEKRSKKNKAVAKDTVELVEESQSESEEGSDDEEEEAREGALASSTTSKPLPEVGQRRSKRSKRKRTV


Molecular target: T1, Alb3-Cub: mature Alb3 fused to the C-terminal half of ubiquitin (split-ubiquitin bait) (Arabidopsis thaliana)
Assay: two-hybrid; yeast split-ubiquitin assay; Alb3 constructs fused to Cub, uL4 constructs fused to NubG; growth on selective medium (-LTH)

Row | Binder | binding
1 | NubG-uL4+C20 (Synechocystis): full-length Synechocystis sp. PCC6803 uL4 fused to A. thaliana uL4c aa 263-282 (protein, UniProt P73319 1-210; O50061 263-282) MVDCIVKNWQGEEVGNASLTLRVAKEENAAHIVHRALVRQQNNARQGNASAKTRAEVRGGGRKPWKQKGTGRARAGSIRSPLWRGGGVIFGPKPRDYSQKMNRKERRLALRTAIASRADNMVVVEAFGDQFSQPKTKELATALTRWGAKPEKRVLLILDEIPENVFLSGRNIPYLKILRADNLNIYDVLVADTIVATATALEKIQEVYGEVDAVEEEDDDEDETEGSEEA | binds
2 | NubG-uL4c: A. thaliana mature uL4c (aa 50-282) fused to NubG (split-ubiquitin prey) (protein, UniProt O50061 50-282) QLATLPILSFEGEKVGETYLDLKAAPEDTARAVVHRAIVTDLNNKRRGTASTLTRGEVRGGGIKPYSQKKTGHARRGSQRTPLRPGGGVVFGPRPKDWSIKINRKEKKLAISTALSSAASAEGGAIVVEEFGEKFEKPKTKDFLAAMQRWGLDPKEKAMFLMIDVDENVAKSSRNIGTLRMLTPRTLNLFDILNADKLVLTPAAVEFLNARYGVDAVEEEDDDEDETEGSEEA | binds
3 | NubG-uL4cΔN231: A. thaliana uL4c aa 232-282 fused to NubG (domain or fragment, UniProt O50061 232-282) TPRTLNLFDILNADKLVLTPAAVEFLNARYGVDAVEEEDDDEDETEGSEEA | binds
4 | NubG-uL4 of Synechocystis sp. PCC6803, full length (aa 1-210) (protein, UniProt P73319 1-210) MVDCIVKNWQGEEVGNASLTLRVAKEENAAHIVHRALVRQQNNARQGNASAKTRAEVRGGGRKPWKQKGTGRARAGSIRSPLWRGGGVIFGPKPRDYSQKMNRKERRLALRTAIASRADNMVVVEAFGDQFSQPKTKELATALTRWGAKPEKRVLLILDEIPENVFLSGRNIPYLKILRADNLNIYDVLVADTIVATATALEKIQEVYGE | no binding
5 | NubG-uL4cΔC20: A. thaliana uL4c aa 50-262 fused to NubG (domain or fragment, UniProt O50061 50-262) QLATLPILSFEGEKVGETYLDLKAAPEDTARAVVHRAIVTDLNNKRRGTASTLTRGEVRGGGIKPYSQKKTGHARRGSQRTPLRPGGGVVFGPRPKDWSIKINRKEKKLAISTALSSAASAEGGAIVVEEFGEKFEKPKTKDFLAAMQRWGLDPKEKAMFLMIDVDENVAKSSRNIGTLRMLTPRTLNLFDILNADKLVLTPAAVEFLNARYG | no binding
